In the supplement of paper PMC9446081 one finds relative growth data, which are given here for 59 compounds.

Out of some 39,000 compounds screened, about 220 (0.56%) showed activity. Some of the results follow.
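Note: static incubation at 37 °C against the wild-type strain, values averaged over two biological replicates.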

The subject of this assay is Escherichia coli K-12 BW25113. In words: relative growth (OD600 normalised to plate interquartile mean) (fraction); higher = less growth inhibition, active = 0.2 or less. Particulars: 50 µM; LB; incubation time: overnight (16-24 h).
For `COc1ccc2c3c(n(c2c1)C)[C@H](CO)N(CC1CC1)C[C@]13CCN(CC1)S(=O)(=O)c1cn(cn1)C`, the relative growth is inactive: 1.03.
As to `CN(C)CCCC[C@@H]1NC(=O)[C@H]2C[C@@H](C(=O)NCCCCCCNC(=O)CS)[C@@H](c3ccc(O)cc3)N2C1=O`, the relative growth was inactive: 0.963.
As for `C[C@H](CO)N1C[C@H](C)[C@@H](CN(C)C(=O)Nc2cccc(F)c2)Oc2ncc(Br)cc2C1=O`, the relative growth is inactive: 0.958.
Consider `C[C@H](N)C(=O)N[C@@H](C)P(=O)(O)O`, for which the relative growth was inactive: 0.973.
For `Cc1noc(C)c1NC(=O)N(C)C[C@@H]1Oc2c(NC(=O)C3CCOCC3)cccc2C(=O)N([C@@H](C)CO)C[C@@H]1C`, the relative growth was inactive: 0.985.
Under `C[C@@H]1CCCCO[C@@H](CN(C)C(=O)c2ccccc2)[C@H](C)CN([C@H](C)CO)C(=O)c2cc(NS(=O)(=O)c3cccs3)ccc2O1` stands inactive: 1.02; under `Cc1noc(C)c1S(=O)(=O)Nc1ccc2c(c1)C(=O)N([C@H](C)CO)C[C@@H](C)[C@@H](CN(C)C)OCCCC[C@H](C)O2`, inactive: 1.
Under `Cc1noc(C)c1S(=O)(=O)N(C)C[C@@H]1Oc2ccc(NC(=O)Cn3cnnn3)cc2CC(=O)N([C@@H](C)CO)C[C@H]1C` stands inactive: 0.968; under `C[C@@H]1CCCCO[C@H](CN(C)Cc2ccc(C(F)(F)F)cc2)[C@@H](C)CN([C@@H](C)CO)C(=O)c2cc(NS(=O)(=O)c3ccccc3)ccc2O1`, inactive: 0.985; under `CN(C)CCCNC(=O)C[C@@H]1CC[C@@H]2[C@H](COC[C@@H](O)CN2S(=O)(=O)c2ccccc2)O1`, inactive: 0.995.
As for `C[C@@H]1CN([C@@H](C)CO)C(=O)c2cc(NS(=O)(=O)c3cccs3)ccc2O[C@H]1CN(C)CC1CC1`, the relative growth is inactive: 0.974.
Under `C[C@H]1CN([C@@H](C)CO)C(=O)CCCn2cc(nn2)CO[C@@H]1CN(C)C(=O)Nc1ccc(N2CCN(C)CC2)cc1` stands inactive: 0.979.
Consider `C[C@@H]1CN([C@@H](C)CO)C(=O)c2cc(NC(=O)Nc3ccc(F)cc3)ccc2O[C@@H](C)CCCCO[C@H]1CN(C)S(=O)(=O)c1cccs1`, for which the relative growth is inactive: 1.03.
Under `Cc1noc(C)c1S(=O)(=O)Nc1ccc2c(c1)C(=O)N([C@@H](C)CO)C[C@@H](C)[C@H](CN(C)C(=O)NC(C)C)O2` stands inactive: 1.01; under `C[C@@H]1CCCCO[C@@H](CN(C)Cc2ccc(C(F)(F)F)cc2)[C@H](C)CN([C@H](C)CO)C(=O)c2cc(NC(=O)Nc3cccc4ccccc34)ccc2O1`, inactive: 1.03.
Under `C[C@H]1CN([C@@H](C)CO)C(=O)c2cc(C#CC3CCCCC3)cnc2O[C@@H]1CN(C)C(=O)c1ccncc1` stands inactive: 1.02; under `COc1ccc(S(=O)(=O)Nc2ccc3c(c2)C(=O)N([C@@H](C)CO)C[C@@H](C)[C@H](CN(C)Cc2ccc(-c4ccccc4)cc2)O3)cc1`, inactive: 0.995.
With `C[C@@H]1CN([C@H](C)CO)C(=O)c2cccc(NC(=O)Nc3ccc(C(F)(F)F)cc3)c2O[C@@H]1CN(C)S(C)(=O)=O` the figure was inactive: 0.864; with `C[C@H]1CN([C@@H](C)CO)C(=O)c2cc(NC(=O)NC3CCCCC3)ccc2O[C@@H]1CN(C)Cc1ccc(C(F)(F)F)cc1`, inactive: 0.99; with `C[C@H]1CCCCO[C@@H](CN(C)C(=O)Nc2ccc(C(F)(F)F)cc2)[C@@H](C)CN([C@@H](C)CO)C(=O)c2cc(NS(C)(=O)=O)ccc2O1`, inactive: 1.01.
For `C[C@@H]1CN([C@@H](C)CO)C(=O)c2cc(NC(=O)NC3CCCCC3)ccc2O[C@@H](C)CCCCO[C@H]1CN(C)C(=O)Cc1ccccc1`, the relative growth is inactive: 0.884.
Turning to `CCCNC(=O)Nc1ccc2c(c1)C(=O)N(C)C[C@@H](OC)[C@@H](C)CN(C(=O)C1CCOCC1)[C@@H](C)CO2`, the relative growth was inactive: 0.994.
For `[N-]=[N+]=Nc1ccccc1[C@@H]1OC(c2ccc(OCCCO)cc2)=N[C@]1(CCS(=O)(=O)c1ccccc1)C(=O)NC[C@@H](O)CO`, the relative growth is inactive: 1.
Regarding `C[C@@H]1CCCCO[C@@H](CN(C)Cc2ccncc2)[C@H](C)CN([C@@H](C)CO)C(=O)c2cc(NC(=O)Nc3ccc(F)cc3)ccc2O1`, the relative growth is inactive: 1.01.
For the compound `N[C@H]1CCc2nc3ccccc3c(=O)n2[C@@H]1c1ccsc1`, the relative growth is inactive: 0.989.
Regarding `C=CCCCCCCCCC(=O)O`, the relative growth was inactive: 0.954.
Under `O=C1[C@H]2C=NN[C@@H]2C(=O)N1Cc1ccccc1` stands inactive: 0.97; under `C[C@@H]1CN([C@@H](C)CO)C(=O)c2cc(C#CC3CCCC3)cnc2O[C@H]1CN(C)C(=O)Cc1ccccn1`, inactive: 0.97.
On to `C[C@@H]1CN([C@H](C)CO)C(=O)Cc2cc(NS(=O)(=O)c3ccccc3)ccc2O[C@H]1CN(C)CC1CC1`, for which the relative growth is inactive: 0.997.
For the compound `CCCCc1nc(Cl)c(CO)n1Cc1ccc(-c2ccccc2-c2nnn[nH]2)cc1`, the relative growth was inactive: 1.01.
For the compound `Clc1ccc([C@H]2CC(C3CC3)=NN2c2ccccc2)cc1`, the relative growth is inactive: 1.04.
With `CO[C@H](CN(C)C(=O)Nc1ccc(C(F)(F)F)cc1)[C@@H](C)CN(Cc1ccccc1Cl)[C@@H](C)CO` the figure was inactive: 1.03; with `C[C@@H]1CCCCO[C@@H](CN(C)Cc2ccc3c(c2)OCO3)[C@H](C)CN([C@H](C)CO)C(=O)c2cc(NC(=O)Nc3ccc(F)cc3)ccc2O1`, inactive: 0.972.
As for `O=C1O[C@H](c2ccccc2)[C@H](c2ccccc2)N2[C@H]1[C@@H](C(=O)N1CCCCCCC1)[C@]1(C(=O)Nc3ccc(C#CC4(O)CCCCCC4)cc31)[C@H]2c1ccccc1OCCO`, the relative growth was inactive: 1.03.
For `C[C@H]1CN([C@@H](C)CO)C(=O)c2c(c3ccccc3n2C)-c2ccccc2CO[C@@H]1CN(C)CC1CCCCC1`, the relative growth was inactive: 1.01.
For `Cc1noc(C)c1NC(=O)N(C)C[C@@H]1Oc2ccc(NS(=O)(=O)c3ccccc3)cc2CC(=O)N([C@H](C)CO)C[C@H]1C`, the relative growth is inactive: 0.979.
As to `Cc1noc(C)c1NC(=O)Nc1cccc2c1O[C@H](CN(C)Cc1ccc(Oc3ccccc3)cc1)[C@@H](C)CN([C@@H](C)CO)C2=O`, the relative growth is inactive: 1.02.
With `C=CCNC(=O)[C@H]1CCCN(S(C)(=O)=O)C1` the figure was inactive: 1.01.
Under `C[C@H]1CN([C@@H](C)CO)C(=O)Cc2cc(NS(=O)(=O)c3cn(C)cn3)ccc2O[C@H]1CN(C)Cc1ccc2c(c1)OCO2` stands inactive: 0.979; under `C[C@@H]1CCCCO[C@H](CN(C)C(=O)c2ccccc2)[C@@H](C)CN([C@@H](C)CO)C(=O)c2cc(NC(=O)C3CCCCC3)ccc2O1`, inactive: 1.
Regarding `C[C@@H]1CN([C@@H](C)CO)C(=O)Cc2cc(NC(=O)CCN3CCOCC3)ccc2O[C@H]1CN(C)C(=O)NC1CCCCC1`, the relative growth is inactive: 1.02.
As for `COc1c(O)cc2oc3cc(O)c(CC=C(C)C)c(O)c3c(=O)c2c1CC=C(C)C` [alpha-MANGOSTIN], the relative growth is inactive: 0.806.
Take `Cc1ccc(S(=O)(=O)Nc2cccc3c2O[C@H](CN(C)Cc2ccc(C(F)(F)F)cc2)[C@H](C)CN([C@@H](C)CO)C3=O)cc1`: the relative growth is inactive: 1.04.
With `C[C@H]1CN([C@@H](C)CO)C(=O)CCCn2cc(nn2)CO[C@H]1CN(C)S(=O)(=O)c1cccc(C#N)c1` the figure was inactive: 1.02; with `CC(C)NC(=O)N(C)C[C@H]1Oc2ncc(-c3ccc(C(=O)N(C)C)cc3)cc2C(=O)N([C@H](C)CO)C[C@@H]1C`, inactive: 0.987.
With `O=C(O)c1cn(-c2ccccc2)nn1` the figure was inactive: 0.815.
Turning to `NC(=O)c1cc[n+](CC2=C(C(=O)[O-])N3C(=O)C(NC(=O)C(c4ccccc4)S(=O)(=O)[O-])C3SC2)cc1.[Na+]` (centres undefined), the relative growth is inactive: 1.08.
For the compound `C[C@@H]1CCCCO[C@H](CN(C)C(=O)c2ccccc2)[C@@H](C)CN([C@@H](C)CO)C(=O)c2cc(NC(=O)NC3CCCCC3)ccc2O1`, the relative growth was inactive: 0.962.
Consider `C[C@@H]1CCCCO[C@@H](CN(C)S(=O)(=O)c2ccccc2)[C@H](C)CN([C@H](C)CO)C(=O)c2cc(NC(=O)Nc3ccc4c(c3)OCO4)ccc2O1`, for which the relative growth was inactive: 0.932.
With `CC(C)CC#Cc1ccc2c(c1)O[C@@H](CN(C)C(=O)c1ccncc1)[C@@H](C)CN([C@@H](C)CO)S2(=O)=O` the figure was inactive: 0.887; with `C[C@@H]1CN([C@@H](C)CO)S(=O)(=O)c2ccc(C#C[C@@H](C)O)cc2O[C@@H]1CN(C)C(=O)C1CCCCC1`, inactive: 1; with `COc1ccc(NC(=O)N(C)C[C@H]2Oc3ccc(NC(=O)CCN4CCOCC4)cc3C(=O)N([C@H](C)CO)C[C@@H]2C)cc1`, inactive: 0.984.
With `CCCC(NC(C)C(=O)N1C(C(=O)O)CC2CCCCC21)C(=O)O` (centres undefined) the figure was inactive: 1.02; with `CC(C)NC(=O)N(C)C[C@@H]1OCCCC[C@@H](C)Oc2ccc(NC(=O)Nc3ccccc3)cc2C(=O)N([C@@H](C)CO)C[C@@H]1C`, inactive: 0.996.
Regarding `C[C@H]1CCCCO[C@@H](CN(C)C(=O)c2ccncc2)[C@@H](C)CN([C@@H](C)CO)C(=O)c2cc(NS(C)(=O)=O)ccc2O1`, the relative growth is inactive: 1.
In the case of `CCCNC(=O)C[C@@H]1CC[C@@H]2[C@@H](COc3ccc(NS(=O)(=O)c4ccccc4C)cc3C(=O)N2C)O1`, the relative growth is inactive: 0.973.
For `C[C@@H]1CN([C@@H](C)CO)C(=O)c2cc(NC(=O)Cn3cnnn3)ccc2O[C@H]1CN(C)Cc1ccc(C(F)(F)F)cc1`, the relative growth was inactive: 0.945.
For `CNC(=O)C[C@H]1CC[C@H]2[C@H](COc3ccc(NC(=O)c4ccc(C(F)(F)F)cc4)cc3C(=O)N2C)O1`, the relative growth was inactive: 0.978.
In the case of `C[C@H]1CN([C@@H](C)CO)C(=O)c2cccc(NC(=O)c3ccc(-c4nccs4)cc3)c2O[C@@H]1CN(C)Cc1ccc(-c2ccccc2)cc1`, the relative growth was inactive: 0.974.
